Sequences with one replicate were seen in a single cluster, so their values are uncertain.
Each sequence was assayed on ATP (assay: switch fluorescence ratio, 500 uM ATP over buffer (Cy3 cluster intensity, sum of 5 cycles each) (fold (ratio)); higher = stronger signal-on switching upon ATP binding; sequences stand for … in TCGTCGGCAGCGTCAGATGTGTATAAGAGACAGTTTTTTTTTTTTTTTTTTTTTTTTT…TC). Settings: aptamer strand: ATP DNA aptamer (quencher-CACCTGGGGGAGTATTGCGGAGGAAGG + anchor), 100 nM annealed; ATP concentration: 500 uM; one replicate.
Procedure, shortened: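 For every switch-domain sequence, the fluorescence ratio is the mean of per-cluster values, each being summed target-cycle Cy3 intensity over summed buffer-cycle Cy3 intensity. Clusters outside 100-1000 RFU were excluded. On a modified Illumina MiSeq flow-cell, the Cy3-labelled switching-strand clusters were annealed to 100 nM quencher-labelled ATP aptamer, imaged in selection buffer and then after 15 min with 500 uM ATP at 22 °C. Five such cycles were run, with NaOH stripping and re-annealing between them.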
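Also: ATP exposure 15 min at 22 °C before imaging.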

Row | Sequence | switch fluorescence ratio
1 | ATTTGCAGAC | 1.32
2 | CAAATATTCG | 0.985
3 | GTTTGATGAG | 0.976
4 | CTGGGCTTCC | 2.33
5 | TTGAAGTGTT | 0.98
6 | CCGGCAACTG | 1.28
7 | GCTACTTCGT | 0.984
8 | GACCGGGC | 0.966
9 | TAAGTCGTAC | 1.03
10 | TAATCAACAT | 0.987
11 | GTTAAATGA | 0.999
12 | ATAGGACAAA | 1.01
13 | TCGTGTCGTT | 0.958
14 | CATTTACCTC | 1.07
15 | CGGGTCGG | 0.967
16 | AAGAACTTGG | 1
17 | TGAAGATTAA | 0.979
18 | TTGTTGACGT | 1.07
19 | TTCGGGCTAT | 1.06
20 | TGGTAACAAG | 1
21 | CGTTGTAGCT | 1.01
22 | TTTCGTTATC | 1.02
23 | TGCCAATGTA | 0.967
24 | TTGGCGATGC | 1.73
25 | TCATCTATAG | 1.01
26 | ATCTGTGCAT | 1.02

Row | Sequence | switch fluorescence ratio
27 | TTCGCTCGGA | 1.02
28 | TCGTCTTAAC | 1.06
29 | TAACTTGAGA | 0.963
30 | AGTTGGAGTA | 0.974
31 | ATCGGTGTTT | 0.999
32 | GAAAGCATGT | 0.99
33 | ACCATTGCTG | 0.964
34 | CTGGTCGCAA | 1.64
35 | CTCGGTTGAG | 1.17
36 | TAATACAT | 0.969
37 | CGGGGACTCT | 1.02
38 | AATTTATGAA | 1.04
39 | GGTCGGGAGC | 1.03
40 | CCACGTATTC | 1.33
41 | AGCGTGGGTG | 1.03
42 | ACTGCTTGAC | 1.01
43 | GGGCGGAGTA | 1.34
44 | GGGTCTCCCG | 1.06
45 | TGCGAAAGAC | 1.1
46 | GATTATGGTG | 0.992
47 | CTTGGTTAGA | 1
48 | GGAGGGAGC | 0.983
49 | ATGACGCCGA | 0.983
50 | CACGCGTCAA | 1.05
51 | GTGTCTCTCC | 1.06
52 | AGATGAGGC | 1

Row | Sequence | switch fluorescence ratio
53 | ATGATGACGT | 1.01
54 | ATGTTCGCG | 1.01
55 | AAAGACGATC | 1.13
56 | CAAATGACAA | 0.964
57 | AGTCTTAGCT | 0.992
58 | AATGTCCCTT | 0.984
59 | AAAGCCTTTC | 1.42
60 | TCCATAGACA | 1.02
61 | CGGTTGGATG | 0.96
62 | GCAGGCTCGC | 1.06
63 | AAACTTGCAA | 1.27
64 | TCATGGTGTA | 1.01
65 | GTGCGCGGAT | 1.04
66 | CTTATCTTA | 1.02
67 | CTAAAGGCC | 1.01
68 | GGGAGCAATG | 1.57
69 | GGCGTTGACA | 0.998
70 | TACCGCTGGT | 1.05
71 | TCATGTAATT | 1.03
72 | TAGCGGTCT | 1.03
73 | ATAAGATTCG | 1.02
74 | AAAAGTTGTG | 1.58
75 | AATGCGCACG | 1.02
76 | GACAGCAGTG | 1.02
77 | GCTCCCCCGA | 2.1
78 | CTCTATGCCT | 1.03

Row | Sequence | switch fluorescence ratio
79 | AAGATGAGAG | 1.05
80 | TCGGTCGCTA | 1.05
81 | CAAGGGCTGC | 1.03
82 | TGTCTGAAAT | 1.04
83 | ATCGGTATGG | 0.933
84 | GTATAGAGCC | 0.983
85 | CACTGTTAGC | 1.1
86 | GTGGGGACGT | 0.964
87 | CGAAATCTGG | 1.03
88 | GCGCGAGTCA | 1.03
89 | TTCATGGGCA | 0.97
90 | TGCATTTTTC | 1.03
91 | AGCTTTGCAA | 1.18
92 | TATGATACTT | 1.01
93 | ACGACAGTTT | 1.01
94 | GCCTTAAGA | 0.985
95 | CGCTAAAATC | 1.18
96 | GGTATCTCAC | 0.995
97 | AGGGTCGCAT | 0.979
98 | ATGTTGGTTA | 0.957
99 | CCAGGAATC | 1.31
100 | TTGCCAATAG | 1.07
101 | CGCGAGAGCA | 0.994
102 | GTCCATGGTA | 1.02
103 | ACGTCAAAAG | 1.06
104 | AACGCTATT | 1.17

Row | Sequence | switch fluorescence ratio
105 | ACAAAGCCCG | 1.14
106 | TTCGGAGTAG | 0.949
107 | ACTGCAC | 1.63
108 | TGGGGGCCA | 0.991
109 | GCCGGTTAGC | 0.968
110 | TAACTTTCGG | 1.02
111 | GGATTTGGC | 0.941
112 | ACAACGGGAC | 1.28
113 | CGTATGACGG | 0.988
114 | TTGAGGATTA | 0.963
115 | GTGAAGGAGG | 0.973
116 | CAAACATGA | 0.993
117 | TAACTAGGGA | 0.979
118 | AGTACGGATC | 1
119 | TGAATGGCGA | 0.967
120 | CACCAGATTG | 1.04
121 | TAAAGACACT | 1.04
122 | GACGGAACAT | 1.11
123 | CCGGACCTTT | 1.06
124 | TCCGGAAGGG | 1.05
125 | TTATAGCGGT | 1
126 | GCCGATCTGG | 0.968
127 | TTGGCCATTA | 0.987
128 | TTGCAGAGTG | 1.02
129 | AGAGACTGTT | 0.989
130 | TAGATTAGGC | 0.957

Row | Sequence | switch fluorescence ratio
131 | AAGAACCAGC | 1.01
132 | TCGATGTTTT | 1.05
133 | AGACGCTCTT | 1.1
134 | GGACCGGCGG | 1.01
135 | AAGGGTGAGA | 0.996
136 | GTACTTACTC | 1.25
137 | GGTCGTCTGG | 0.969
138 | TGATCATGCA | 1.04
139 | GGCTACAGGT | 0.975
140 | CAATGGGAGC | 0.987
141 | GGAACTGGGG | 0.988
142 | ACTGTCTTGA | 0.934
143 | GGAGTCCTTG | 0.934
144 | TCTCGGCCTA | 1.12
145 | TACGTATGTG | 1.02
146 | GATTACGAAG | 0.966
147 | CAACGTGGTT | 0.977
148 | CATAAGGCCG | 1.04
149 | AGGAAAAAGA | 0.976
150 | CCACTTATAT | 1.04
151 | TCTCGTCGGT | 0.994
152 | ATCCGATAAC | 2.05
153 | ACACGAGAGG | 1.08
154 | GGGCTCATA | 1.03
155 | GAGTCGATGG | 0.989
156 | CTCCGTAGT | 7.02

Row | Sequence | switch fluorescence ratio
157 | CGCAGACCGC | 1.27
158 | AGCGGACATC | 1.02
159 | GCTTTTAATG | 0.996
160 | ATTCTCTATG | 0.977
161 | GCCTGTGCA | 0.998
162 | GCAGTTTGAA | 0.993
163 | GAGATGCCAT | 0.978
164 | TATGCGTTC | 0.991
165 | ACTAGGCCTG | 0.962
166 | ATACGCGCTG | 0.985
167 | TAGCAAGGAG | 1.13
168 | GACGGGCGCG | 1.01
169 | TGGACGGGT | 1
170 | CAAAAATGTA | 0.996
171 | ATTCCCTTCT | 1.02
172 | GAGGACTAAT | 1.01
173 | ATATGGCGGG | 0.989
174 | TGTGAAAAAT | 0.999
175 | CCCCCGAGGA | 1.3
176 | GTTATACGAC | 1.24
177 | AGACTTTAAT | 1.03
178 | ATGGGATAAC | 1.03
179 | ATTCATCCCG | 1.02
180 | TCACCCACAG | 1.45
181 | GGTACTAGGT | 1.02
182 | TAGAGGTTTA | 0.981

Row | Sequence | switch fluorescence ratio
183 | TGTTCGTATG | 0.962
184 | TTCATCCATT | 1.05
185 | TCGGACCGCT | 1.04
186 | TTAGTGCATG | 0.992
187 | TTGAAACACG | 2.66
188 | CAATTGGCCA | 0.922
189 | GCGATCCTAT | 0.986
190 | CAACGGTAGG | 1.02
191 | GTCGCCCGTT | 1.04
192 | TCGATCTATG | 1.03
193 | GGCCGGACTA | 1.02
194 | TACTCGTCGG | 1
195 | CATCGGATC | 1.03
196 | TTGGGTTGTC | 0.981
197 | ACAGGACATG | 1.04
198 | ATGGTCTTCT | 1
199 | GTAGATAGGA | 1.05
200 | ATCGACTCCG | 1.1
201 | TCAATTTTCT | 0.984
